# Data from PubChem BioAssay AID757 (NMMLSC, 2007).
# Screen size: about 190,000 compounds; about 520 (0.27%) were called active. Inconclusive means that the source gave no clear call. Such entries were picked first, then a sample of the others.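 How the source made its calls: active means GTP binding activity at least 20 points away from the 100% control level, either lower or higher; inconclusive means compound flagged as likely green fluorescent, judged across all proteins; inactive means the rest.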
# Molecular target: Ras-related C3 botulinum toxin substrate 1 (Homo sapiens) (UniProt P63000)
# Assay: wildtype Rac1 GTP binding modulators, primary screen, biochemical, GST-Rac1 beads, flow cytometry, multiplex (AID 757)
# Details: fluorescent GTP binding, at 10 µM, actives lie on both sides, 0 = cold GTP competed, 100 = untreated
row,SMILES,GTP binding activity (% of control)
1,CS(=O)(=O)N1CCC(C(=O)NCc2ccc(F)cc2)CC1,inactive: 99%
2,O=C(C[n+]1ccccc1)Nc1cc(C(F)(F)F)ccc1Cl,inconclusive: 105%
3,Cc1ccc(CS(=O)(=O)c2ccccc2-c2nnc(-c3ccc(Cl)cc3)o2)cc1,inactive: 93%
4,COc1cccc(-c2n[nH]c3c2CCC3)c1,inconclusive: 98%
5,CN(Cc1cnn(-c2ccc(F)cc2)c1)Cc1nc(Cc2ccccc2)no1,inconclusive: 92%
6,Cc1cc(C(=O)NCC(C)C)c2ccccc2n1,inconclusive: 107%
7,N#Cc1c(N)nc2c(c1N)CC(CCl)O2 (stereo unspecified),inconclusive: 89%
8,Cc1ccccc1-n1nc(C)c2cc(C(=O)NCc3cccnc3)sc21,inconclusive: 105%
9,CC1CCCCC1NC(=O)COC(=O)c1ccccn1 (stereo unspecified),inconclusive: 107%
10,O=c1c2cccnc2n(-c2ccccc2)n1Cc1ccc(Cl)cc1,inconclusive: 96%
11,Cc1ccc(-n2c(SCC(=O)N3CC(=O)Nc4ccccc43)nc3ccccc3c2=O)cc1,inactive: 105%
12,COc1ccc(CCc2nnc(CCC(=O)NCc3ccc4ncccc4c3)o2)cc1,inactive: 96%
13,O=C(COC(=O)c1ccccc1NC(=O)C1CC1)c1ccc2c(c1)OCCO2,inactive: 102%
14,CCOc1cc(C(=O)NCc2ccc(C)cc2)ccc1OCC(=O)N1CCOCC1,inconclusive: 94%
15,c1ccc(-c2nnc3n2N=C(c2ccc4c(c2)OCO4)CS3)nc1,inconclusive: 87%
16,O=c1c2[nH]c3ccc(F)cc3c2ncn1C1CCCCC1,inactive: 101%
17,O=C(NCc1ccc2c(c1)OCO2)c1ccc2c(c1)C(=O)N(CC1CCCO1)C2=O (stereo unspecified),inconclusive: 89%
18,O=C(/C=C\c1cccs1)N1CCN(Cc2ccc3c(c2)OCO3)CC1,inactive: 103%
19,COC(=O)c1ccc(N=NNc2cccc(Br)c2)cc1,inactive: 96%
20,C#CCn1cc(/C=N/NC(=O)COc2cccc3cccnc23)c2ccccc21,inconclusive: 103%
21,Cc1nc2ccc3nc(NC(=O)c4ccc5c(c4)OCCO5)sc3c2s1,inconclusive: 106%
22,C/C(=N\NC(=O)c1c[nH]c2ccccc12)c1ccccn1,inconclusive: 78%
23,COc1ccc(F)cc1C(=O)C1CCCN(C(=O)c2ocnc2C)C1 (stereo unspecified),inactive: 107%
24,Cc1cc(C(=O)CSc2nnc(-c3ccccc3)o2)c(C)n1CC1COc2ccccc2O1 (stereo unspecified),inconclusive: 87%
25,CC1(C)OC(=O)C(=Cc2ccc(-c3ccc(S(N)(=O)=O)cc3)o2)C(=O)O1,inactive: 88%
26,COc1ccc(C(=O)Nc2nc3ccccc3[nH]2)cc1S(=O)(=O)N1CCOCC1,inactive: 82%
